Test results taken from publication PMC6688997 (Nature Communications, 2019).

Legend:
[1] = molecular target: T1, phospho-ROS1 in Ba/F3-CD74-ROS1-G2032R xenograft tumors (Homo sapiens, UniProt P04233+P08922, G2032R); assay: Immunoblot of xenograft tumors; assay type: in vivo, mouse; conditions: repeated daily oral dosing
T1 construct: CD74 (N-terminal fusion partner, human CD74 P04233); expressed in transfected cells; host or cells: Ba/F3 (murine pro-B cells), retroviral infection

[2] = tested on: MGH193-1B patient-derived cells; assay: CellTiter-Glo cell viability assay; conditions: 72–120 h

T1 sequence (P08922 1883-2347 G2032R limits assumed, one chain of several): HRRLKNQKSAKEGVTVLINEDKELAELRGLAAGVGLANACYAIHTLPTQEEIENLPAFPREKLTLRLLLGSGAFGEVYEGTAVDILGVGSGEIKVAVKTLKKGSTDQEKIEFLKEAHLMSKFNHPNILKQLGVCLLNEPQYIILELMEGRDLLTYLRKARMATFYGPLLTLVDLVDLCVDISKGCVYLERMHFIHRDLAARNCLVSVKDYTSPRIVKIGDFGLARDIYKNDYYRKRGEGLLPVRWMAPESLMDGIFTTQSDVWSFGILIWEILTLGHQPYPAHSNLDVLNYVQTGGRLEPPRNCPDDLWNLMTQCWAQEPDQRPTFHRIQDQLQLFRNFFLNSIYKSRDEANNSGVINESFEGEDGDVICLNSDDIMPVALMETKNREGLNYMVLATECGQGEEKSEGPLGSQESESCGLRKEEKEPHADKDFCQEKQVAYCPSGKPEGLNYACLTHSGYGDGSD

## C[C@@H](N)COc1ccc(-c2cnc3ccc(N[C@H](C)c4cccc(F)c4)nn23)cc1.O=C(O)CCCCC(=O)O [DS-6051b]
[1]
  Inhibition of phospho-ROS1 in tumors: almost completely inhibited

## C[C@@H](Oc1cc(-c2cnn(C3CCNCC3)c2)cnc1N)c1c(Cl)ccc(F)c1Cl [crizotinib, reference compound]
[2]
  Sensitivity (cell viability): sensitive
